PubChem BioAssay (NCATS)
Values joined by “and” are separate entries in the source; they are usually repeats but may differ in a detail not shown here. Equal entries are not always repeated. Inconclusive results, whose numbers are uncertain, are shown with a selection of clear calls. Potencies of inconclusive entries are doubtful fits and often do not repeat. Active and inactive are the calls of the source. Calls come from the whole dose curve; as a rule, active = well fitted curve in the direction sought with a large enough effect; inconclusive = small, poorly fitted or top-dose-only effect, or another doubt; inactive = no such curve, though single readings can be large; an effect the other way counts as inactive or inconclusive.

How the values were obtained:
[1] = qHTS of pediatric cancer cell lines to identify multiple opportunities for drug repurposing: Primary screen for NB-EBc1 cells (AID 1347095); settings: NB-EBc1 neuroblastoma viability, CellTiter-Glo luminescence, 48 h; series mostly up to 46 µM
Outline: (§1)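 Cells seeded at 500-1,000 cells/well in growth media, rested 5 hours at 37 degrees C, 5% CO2, then dosed; MIPE compounds at 11-point (from 0.78 nM) and NPC at 8-point (from 0.59 nM) final concentrations. Viability by CellTiter-Glo luminescence after 48 hours.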

[2] = qHTS of pediatric cancer cell lines to identify multiple opportunities for drug repurposing: Primary screen for U-2 OS cells (AID 1347096); settings: U-2 OS viability, CellTiter-Glo luminescence, 48 h; series mostly up to 46 µM; note: nearly all actives have a fitted effect of over 50% in size
Outline: (§2)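 Viability after 48 h compound treatment at 37C, 500-1,000 cells/well, read as ATP luminescence with CellTiter-Glo. Primary screens used 11-point (MIPE, 0.78 nM-46 µM) or 8-point (NPC, 0.59 nM-46 µM) final concentrations; follow-up screens used 11-point dilutions.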

[3] = qHTS of pediatric cancer cell lines to identify multiple opportunities for drug repurposing: Primary screen for Saos-2 cells (AID 1347097); settings: Saos-2 viability, CellTiter-Glo ATP luminescence, 48 h; activity change, negative = cytotoxic: at 46 µM (top of the series); note: nearly all actives have a fitted effect of over 40% in size
Outline: as §1

[4] = qHTS of pediatric cancer cell lines to identify multiple opportunities for drug repurposing: Primary screen for NB1643 cells (AID 1347099); settings: NB1643 neuroblastoma viability, CellTiter-Glo luminescence, 48 h; series mostly up to 46 µM; note: nearly all actives have a fitted effect of over 50% in size
Outline: as §1

[5] = qHTS of pediatric cancer cell lines to identify multiple opportunities for drug repurposing: Primary screen for LAN-5 cells (AID 1347100); settings: LAN-5 neuroblastoma viability, CellTiter-Glo luminescence, 48 h; activity change, negative = cytotoxic: at 46 µM (top of the series)
Outline: as §2

[6] = qHTS of pediatric cancer cell lines to identify multiple opportunities for drug repurposing: Primary screen for BT-37 cells (AID 1347094); settings: BT-37 viability, CellTiter-Glo luminescence, 48 h; series mostly up to 57.3 µM
Outline: as §1

[7] = qHTS of pediatric cancer cell lines to identify multiple opportunities for drug repurposing: Primary screen for BT-12 cells (AID 1347101); settings: BT-12 viability, CellTiter-Glo luminescence, 48 h; series mostly up to 57.3 µM; note: nearly all actives have a fitted effect of over 25% in size
Outline: (§3)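 Cells (500-1,000/well) rested 5 h, then received compounds for 48 h; metabolically active cells were measured by CellTiter-Glo luminescence. Final concentrations spanned up to 46 µM (MIPE, 11-point) or 0.59 nM-46 µM (NPC, 8-point) in primary screens, 11-point in follow-ups.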

[8] = qHTS of pediatric cancer cell lines to identify multiple opportunities for drug repurposing: Primary screen for SK-N-SH cells (AID 1347098); settings: SK-N-SH viability, CellTiter-Glo luminescence, 48 h; series mostly up to 57 µM; note: nearly all actives have a fitted effect of over 65% in size;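 for activity change, negative = cytotoxic: DMSO served as neutral control and bortezomib at 2.3 µM as positive control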
Outline: as §3
Potency is the fitted concentration of half-maximal effect; tags give direction and shape of the fitted curve.

**Q.** With `[O-][n+]1ccccc1SSc1cccc[n+]1[O-]` as the compound, how does the Potency [1] read?
**A.** inconclusive: 14.6 µM [cytotoxic, single point]

**Q.** What about the Potency [2] of the same compound?
**A.** active: 0.231 µM

**Q.** What about the Potency [3] of the same compound?
**A.** active: 0.092 µM

**Q.** And the Potency [4]?
**A.** active: 0.092 µM

**Q.** What about the Potency [5] of the same compound?
**A.** inconclusive: 14.6 µM [cytotoxic, single point]

**Q.** For `Cc1ccc(S(=O)(=O)NC(=O)NC2CCCCCCC2)cc1`, which Potency [1] is on record?
**A.** inactive

**Q.** For `CC(C=CC1=C(C)CCCC1(C)C)=CC=CC(C)=CC(=O)O`, which Potency [6] is on record?
**A.** inconclusive: 7.69 µM [cytotoxic, partial curve]

**Q.** And the Potency [3]?
**A.** inconclusive: 8.33 µM [cytotoxic, partial curve, poor fit] and inconclusive: 8.33 µM [cytotoxic, partial curve]

**Q.** What about the Potency [4] of the same compound?
**A.** inconclusive: 18.7 µM [cytotoxic, partial curve, poor fit] and inconclusive: 5.26 µM [cytotoxic, partial curve]

**Q.** And the Potency [7]?
**A.** inconclusive: 3.43 µM [cytotoxic, full curve]

**Q.** For `COc1cccc(-c2ccc(NC(=O)C3=C(C(=O)O)CCC3)c(F)c2)c1`, which Potency [6] is on record?
**A.** active: 19.3 µM

**Q.** What about the Potency [8] of the same compound?
**A.** active: 24.1 µM

**Q.** And the Potency [7]?
**A.** active: 19.3 µM

**Q.** Which results are given for `CN1C(=O)C(Cc2c[nH]c3ccccc23)NC1=S` (configuration not stated)?
**A.** Potency [1]: inactive; Potency [8]: inactive; Potency [4]: inconclusive: 3.72 µM [cytotoxic, partial curve, poor fit]

**Q.** Which results are given for `Oc1c(Br)cc(Br)c2cccnc12`?
**A.** Potency [6]: inconclusive: 34.7 µM [cytotoxic, single point]; Potency [4]: inconclusive: 5.96 µM [cytotoxic, full curve]; Potency [5]: inconclusive: 29.9 µM [cytotoxic, single point]; Potency [7]: active: 27.6 µM

**Q.** For `O=C(CCN1CCN(C(=O)OCc2cc(Cl)cc(Cl)c2)CC1)c1ccc2[nH]c(=O)oc2c1`, which Potency [1] is on record?
**A.** inactive

**Q.** What about the Potency [3] of the same compound?
**A.** inconclusive: 5.26 µM [cytotoxic, partial curve]

**Q.** What about the Potency [8] of the same compound?
**A.** inconclusive: 19.2 µM [cytotoxic, partial curve]

**Q.** And the Potency [4]?
**A.** inconclusive: 18.7 µM [cytotoxic, partial curve]

**Q.** What about the Potency [7] of the same compound?
**A.** inconclusive: 27.3 µM [cytotoxic, partial curve, poor fit]

**Q.** Which results are given for `CCC(C)SSc1ncc[nH]1` (configuration not stated)?
**A.** Potency [6]: inconclusive: 43.2 µM [cytotoxic, single point]; Potency [3]: active: 18.7 µM; Potency [8]: inconclusive: 24.1 µM [cytotoxic, partial curve]; Potency [5]: active: 14.8 µM; Potency [7]: inconclusive: 30.6 µM [cytotoxic, single point]

**Q.** Which Potency [6] does the source give for `Nc1ccc(N=Nc2ccccc2)c(N)n1` here?
**A.** inactive

**Q.** And the Potency [8]?
**A.** inconclusive: 0.097 µM [cytotoxic, full curve, poor fit]

**Q.** Which Potency [6] does the source give for `CCOc1cc(NC(C)=O)ccc1C(=O)OC` here?
**A.** inactive

**Q.** What about the Potency [8] of the same compound?
**A.** inactive

**Q.** And the Potency [4]?
**A.** inactive

**Q.** What does the source list for `C[C@@H]1CN(Cc2ccc(F)cc2)[C@@H](C)CN1C(=O)c1cc2c(C(=O)C(=O)N(C)C)cn(C)c2cc1Cl`?
**A.** Potency [1]: inconclusive: 6.62 µM [cytotoxic, partial curve]; Potency [2]: inconclusive: 18.7 µM [cytotoxic, partial curve, poor fit]; Potency [3]: inconclusive: 1.18 µM [cytotoxic, full curve]; Potency [8]: inconclusive: 24.1 µM [cytotoxic, partial curve]; Potency [5]: inconclusive: 37.2 µM [cytotoxic, single point]; Potency [7]: inconclusive: 27.3 µM [cytotoxic, partial curve]

**Q.** What does the source list for `CCNC(=O)c1noc(-c2cc(C(C)C)c(O)cc2O)c1-c1ccc(CN2CCOCC2)cc1`?
**A.** Potency [1]: active: 0.296 µM; Potency [2]: inconclusive: 0.118 µM [cytotoxic, full curve]; Potency [3]: inconclusive: 0.118 µM [cytotoxic, full curve]; Potency [4]: active: 0.105 µM; Potency [5]: active: 0.105 µM; Potency [7]: inconclusive: 0.193 µM [cytotoxic, full curve]

**Q.** Which Potency [1] does the source give for `O=C(O)c1cc(=O)c2c(OCC(O)COc3cccc4oc(C(=O)O)cc(=O)c34)cccc2o1` here?
**A.** inactive

**Q.** What about the Potency [3] of the same compound?
**A.** inactive

**Q.** Which Potency [6] does the source give for `CCCCN(CCCC)CCC(O)c1cc2c(Cl)cc(Cl)cc2c2cc(C(F)(F)F)ccc12` (configuration not stated) here?
**A.** inconclusive: 24.6 µM [cytotoxic, single point] and inconclusive: 13.7 µM [cytotoxic, partial curve, poor fit]

**Q.** What about the Potency [5] of the same compound?
**A.** inconclusive: 15 µM [cytotoxic, partial curve, poor fit] and inconclusive: 20.9 µM [cytotoxic, partial curve]

**Q.** And the Potency [7]?
**A.** inconclusive: 24.6 µM [cytotoxic, single point]
